The supplement of paper PMC3334620
The full ranking holds about 33,000 sequences; the median of “E-score (-0.5 to 0.5)” is about -0.054, and the highest 2% start at about 0.35. Some of the results follow.

The sequences below were run against T1, Stb5 (UniProt P38699) (assay: PBM E-score (8-mer binding enrichment) (E-score (-0.5 to 0.5)); higher = stronger / more preferred TF binding; most listed sequences are background and not binding sites). Details: protein concentration: 200 nM; construct: GST-full length.
T1 sequence: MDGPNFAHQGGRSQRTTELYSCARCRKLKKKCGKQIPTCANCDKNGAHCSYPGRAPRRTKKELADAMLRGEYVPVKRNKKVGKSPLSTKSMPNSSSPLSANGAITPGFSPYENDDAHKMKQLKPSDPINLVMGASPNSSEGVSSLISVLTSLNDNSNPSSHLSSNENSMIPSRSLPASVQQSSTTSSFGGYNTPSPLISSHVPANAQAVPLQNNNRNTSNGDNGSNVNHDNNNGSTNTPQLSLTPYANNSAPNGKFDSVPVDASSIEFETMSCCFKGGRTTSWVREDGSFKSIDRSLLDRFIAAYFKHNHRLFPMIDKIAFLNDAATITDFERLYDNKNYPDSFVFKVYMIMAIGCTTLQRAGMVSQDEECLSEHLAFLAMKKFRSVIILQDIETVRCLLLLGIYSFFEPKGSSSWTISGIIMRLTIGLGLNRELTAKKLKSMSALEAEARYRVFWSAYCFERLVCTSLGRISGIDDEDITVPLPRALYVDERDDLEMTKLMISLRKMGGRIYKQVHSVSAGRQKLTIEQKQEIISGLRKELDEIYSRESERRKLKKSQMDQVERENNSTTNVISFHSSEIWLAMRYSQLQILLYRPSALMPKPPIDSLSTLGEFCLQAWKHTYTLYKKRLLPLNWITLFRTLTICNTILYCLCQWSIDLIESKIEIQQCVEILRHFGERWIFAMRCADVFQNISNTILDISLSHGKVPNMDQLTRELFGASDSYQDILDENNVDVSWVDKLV
How it was run: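 Yeast transcription factors carrying a GST tag, as full-length proteins or DNA-binding domains, were produced by PURExpress in vitro transcription/translation. About 100-200 nM protein was applied to universal all-10-mer Agilent arrays, double-stranded by primer extension on fresh or once-stripped slides. Bound protein was detected with fluorescent anti-GST, and scans were normalised with masliner. The Universal PBM Analysis Suite gave each ungapped eight-base word, pooled with its reverse complement, an E-score, a modified Wilcoxon-Mann-Whitney statistic.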

Compared with CTACATAA, GTTGCAAC is higher in “PBM E-score” value: -0.0124 for the first, 0.183 for the second.

First: CATAGGCC
Second: CCTGGAGC
The “PBM E-score” value of the first is higher: 0.159 for the first, 0.0292 for the second.

First: ACTATTAC
Second: TATAACCA
The “PBM E-score” value of the first is lower: 0.0396 for the first, 0.0633 for the second.

First: CTAAAGTC
Second: ACGGCCGG
The “PBM E-score” value of the first is lower: -0.152 for the first, 0.272 for the second.

Going from ACATTTGA to AATCTTGC, the “PBM E-score” value falls from 0.0192 to -0.142.

First: TAAGCGAA
Second: ACCATCGA
The “PBM E-score” value of the first is higher: -0.058 for the first, -0.298 for the second.

Going from GTCAGCAA to AGCCATTA, the “PBM E-score” value rises from -0.184 to -0.127.

First: TGACATCA
Second: ACACGTTC
The “PBM E-score” value of the first is lower: -0.19 for the first, -0.168 for the second.

Going from AAGAAACC to TAATTAGA, the “PBM E-score” value falls from 0.0277 to -0.0496.

Going from AATGCCGG to GCGATCAC, the “PBM E-score” value falls from 0.401 to 0.0708.

Compared with AAAAATAT, GGCTCAAA is higher in “PBM E-score” value: -0.0716 for the first, 0.153 for the second.

Going from CCAACCTC to ACTCGCCC, the “PBM E-score” value falls from -0.111 to -0.257.

Compared with CTTGGCGA, AAGAGCTA is higher in “PBM E-score” value: -0.161 for the first, -0.157 for the second.

First: AGACCAAC
Second: CAAGGATG
The “PBM E-score” value of the first is higher: -0.225 for the first, -0.297 for the second.

Going from AGCCAACA to ATCTCAGG, the “PBM E-score” value rises from -0.201 to -0.178.

First: AGAGCGAT
Second: ACGCGTGC
The “PBM E-score” value of the first is lower: -0.138 for the first, -0.0579 for the second.

Compared with AGGGTGGG, ACCAAAGC is higher in “PBM E-score” value: -0.136 for the first, 0.0189 for the second.

Going from ATGATTTG to CATGTTAG, the “PBM E-score” value falls from -0.115 to -0.255.

First: AGCCGGCA
Second: GCACGTCA
The “PBM E-score” value of the first is higher: 0.256 for the first, -0.0656 for the second.

First: CCTACAAC
Second: GCCACACC
The “PBM E-score” value of the first is higher: -0.0921 for the first, -0.0947 for the second.

Compared with ATCACGTA, ATTTGTAG is lower in “PBM E-score” value: -0.221 for the first, -0.257 for the second.

Going from ATTGGATC to CGGGAGGC, the “PBM E-score” value falls from 0.0452 to -0.136.

First: TGGTACAA
Second: ACTAATCC
The “PBM E-score” value of the first is lower: -0.329 for the first, 0.17 for the second.

First: GCCTGCCC
Second: TATTATGA
The “PBM E-score” value of the first is higher: -0.0993 for the first, -0.183 for the second.

Going from CTGAGTTA to AACCGCGG, the “PBM E-score” value rises from -0.0893 to 0.347.

Going from AAGCGCCT to GAGGGCCC, the “PBM E-score” value rises from 0.0194 to 0.0438.

First: CACTTTGA
Second: GCATTGGC
The “PBM E-score” value of the first is higher: -0.0962 for the first, -0.236 for the second.

Going from TAGGCATA to ACCCCTGC, the “PBM E-score” value falls from -0.0974 to -0.114.

Compared with GCAATGTA, CGAATTTA is higher in “PBM E-score” value: -0.0403 for the first, 0.0452 for the second.

Compared with ACTATCTG, AAGTGCAT is higher in “PBM E-score” value: -0.228 for the first, -0.167 for the second.

Going from CCCTCCAA to AGGCTCAT, the “PBM E-score” value falls from -0.058 to -0.189.

First: ACCAGAAA
Second: ACAGAAAT
The “PBM E-score” value of the first is lower: -0.162 for the first, -0.0874 for the second.

Going from TCGAAGAA to ACCTGTAA, the “PBM E-score” value rises from -0.214 to -0.0837.

Going from CCCAGTAA to GCGTTAAC, the “PBM E-score” value rises from -0.198 to 0.226.

Going from CTTTATGC to TTGTAAAA, the “PBM E-score” value falls from 0.11 to -0.079.

First: ACATCGAG
Second: AACGGCTG
The “PBM E-score” value of the first is lower: -0.146 for the first, 0.00326 for the second.

Going from AAATTGGC to CCATACAC, the “PBM E-score” value rises from -0.0492 to -0.0464.

Going from AAGCCACG to AGCGCGAG, the “PBM E-score” value falls from -0.0184 to -0.0563.

Going from TAATCCGA to CTTAAAAG, the “PBM E-score” value falls from 0.0662 to -0.187.

Going from CGAGATAG to ACAAGGAG, the “PBM E-score” value falls from -0.00732 to -0.135.

Compared with ATTCGCAG, AAGTTAGA is lower in “PBM E-score” value: -0.0626 for the first, -0.13 for the second.

Going from ACAAGATG to AGTGCGCG, the “PBM E-score” value rises from -0.211 to 0.0549.

Compared with GTGATCAA, ATGTTACC is higher in “PBM E-score” value: -0.148 for the first, 0.24 for the second.

First: CTAATGAG
Second: CCGCACGA
The “PBM E-score” value of the first is lower: -0.147 for the first, 0.159 for the second.

Compared with ATAGCACG, AAGGTATT is higher in “PBM E-score” value: -0.0126 for the first, 0.136 for the second.

Going from CCCATGAC to CAATAGTC, the “PBM E-score” value rises from -0.202 to -0.0774.

First: ACCGGATA
Second: AAAACGTT
The “PBM E-score” value of the first is higher: 0.209 for the first, -0.133 for the second.

Going from CCTCAAGC to GGCAGGCA, the “PBM E-score” value rises from -0.181 to -0.118.

Going from GTGGACTA to ACGCGCCT, the “PBM E-score” value falls from 0.0993 to 0.013.

Compared with GTGCGGGA, CAAATAAA is lower in “PBM E-score” value: 0.297 for the first, 0.00893 for the second.

First: AAGCGGTG
Second: AATAGTCG
The “PBM E-score” value of the first is higher: 0.344 for the first, 0.0284 for the second.

Compared with GCGAGCCC, CCTAGATA is lower in “PBM E-score” value: 0.0242 for the first, -0.176 for the second.

Going from CGGTAACA to GCCCGTGA, the “PBM E-score” value falls from 0.36 to 0.123.

First: AAGAGGCG
Second: AAGCACTT
The “PBM E-score” value of the first is higher: -0.132 for the first, -0.144 for the second.

Going from AGAGCCAC to CTGTAGGA, the “PBM E-score” value rises from -0.105 to -0.0922.

First: CGTGACCA
Second: GCCTAGCC
The “PBM E-score” value of the first is lower: -0.197 for the first, 0.156 for the second.

Going from AGCTCATA to AGGGAGCA, the “PBM E-score” value falls from -0.0979 to -0.336.

Going from TTCGTAAA to AGCATTGA, the “PBM E-score” value falls from -0.0719 to -0.357.

Compared with ACACAACT, AACTCACT is lower in “PBM E-score” value: -0.146 for the first, -0.247 for the second.

First: CGGCTAGC
Second: TCCCCGCA
The “PBM E-score” value of the first is lower: -0.0991 for the first, 0.332 for the second.

Compared with CATTGGCA, AGTCTTGG is higher in “PBM E-score” value: -0.217 for the first, -0.142 for the second.

Going from GGCCAAAC to CAAAGTTG, the “PBM E-score” value falls from 0.158 to -0.237.

Going from AAGAACAT to CACATCGA, the “PBM E-score” value falls from -0.0596 to -0.182.

First: GTCCGAGA
Second: ATATTCGC
The “PBM E-score” value of the first is higher: 0.184 for the first, -0.0122 for the second.

Compared with AAGGGGAT, AACTGTTC is higher in “PBM E-score” value: -0.0681 for the first, 0.00432 for the second.

Going from ACGCGCAG to GAAATCGC, the “PBM E-score” value rises from -0.192 to 0.0466.

Compared with CCCCCTAG, ACTCATCT is lower in “PBM E-score” value: -0.234 for the first, -0.254 for the second.

Compared with GATACCCC, CTGGAGAA is lower in “PBM E-score” value: 0.138 for the first, -0.232 for the second.

Going from CAATTCGG to AATCCAGC, the “PBM E-score” value falls from 0.11 to -0.0112.

Going from CCACACTA to CCTATGTC, the “PBM E-score” value falls from -0.0645 to -0.0911.

Compared with AGCCCCAA, CTGAATAC is higher in “PBM E-score” value: -0.305 for the first, -0.137 for the second.

First: TCATGCAA
Second: AAGTCGAT
The “PBM E-score” value of the first is lower: -0.222 for the first, -0.191 for the second.

Going from AAATCTCC to CAGAAAAG, the “PBM E-score” value falls from 0.261 to -0.0539.

Compared with CAGATAGG, AGCGATAC is lower in “PBM E-score” value: -0.0158 for the first, -0.091 for the second.

Going from CGCGGAGC to CATAGTGC, the “PBM E-score” value falls from 0.245 to -0.0321.

Compared with GGTTTGAA, AAGTTAGC is lower in “PBM E-score” value: 0.0123 for the first, -0.155 for the second.

Going from ATATTCCG to TGTGCACA, the “PBM E-score” value falls from 0.171 to -0.322.

Going from GCAGACGA to CCGTTAGA, the “PBM E-score” value rises from -0.025 to 0.279.

Going from CAACGTAG to ATACGACG, the “PBM E-score” value rises from -0.224 to 0.14.

Going from CGCTCTTA to CTGACCCA, the “PBM E-score” value falls from 0.31 to 0.00169.

First: GCGGCACC
Second: GCAAGTTA
The “PBM E-score” value of the first is higher: 0.353 for the first, -0.0697 for the second.

Going from GCTGCGAC to CCCGTTGC, the “PBM E-score” value rises from -0.00769 to 0.117.

First: ACCACTAA
Second: AAGGTGGT
The “PBM E-score” value of the first is lower: -0.172 for the first, -0.0568 for the second.

First: ACGACAAT
Second: ATTAGAGA
The “PBM E-score” value of the first is higher: -0.129 for the first, -0.289 for the second.

Going from CGAACAAG to CCAGTCAG, the “PBM E-score” value falls from 0.144 to -0.202.

Going from GCATGATA to AGTGTGTC, the “PBM E-score” value falls from 0.00072 to -0.222.
